Results on 22 molecules are retold here after paper PMC12136788.

B1: chr11:74254050:74254151:+|3pUTR|ENSG00000214517|unk|FALSE|unique (ssRNA)
RNA: GGGAGUUCUACAGUCCGACGAUCUUGGAAGACCCAGAGAGGCCAAGAUCCCAUCCUUAGCCAUAGCGAGCGGUGGUGGUGGAUAGCAUCACAAGAAACGAGCCUGAAAAUCAGGUCCAGCCGGUCCAAGCACAUGGCCUCCCACAACAGAGGAUUGAGCAUCA
B2: chr1:32195301:32195402:+|3pUTR|ENSG00000084652|msi1|total|mutant (ssRNA)
RNA: GGGAGUUCUACAGUCCGACGAUCUGACCUGGCUGGCAUCUGGCACUUGCAAUUUUGGAUUUUGUGGGUCAGUUUUACGUACACCGGGCAUUUUGCAAGGCCUUGCAAAUGCAUUUAUACCUGUAAGUGUACAGUGGGCUUGCACAACAGAGGAUUGAGCAUCA
B3: chr16:2708819:2708933:+|3pUTR|ENSG00000167977|unk|total|mutant (ssRNA)
RNA: GGGAGUUCUACAGUCCGACGAUCCUCUCUGGGGAGCUGCUGGCCGCUCCGCGUUGUUUGAUUUUUGACCUUGACACCGCCGACCGGCUUGUGGUUUUUUUAAUUUAAAGAUAUUAAGACUUAAUUCACUAAAAUUUAUUCUAACAACAGAGGAUUGAGCAUCA
B4: chr8:81702113:81702224:-|3pUTR|ENSG00000104231|unk|FALSE|unique (ssRNA)
RNA: GGGAGUUCUACAGUCCGACGAUCGUAUAGCCUUGCUGUCUGUCUACAUCAUGAUGUAUAAAUUGAUAUAUCUACAUGAAUUAUAGAAACUUAGAAGUGAUCUUUAUUCAGUCUUAUAAUUUUUACAUGAAGAAUCUUAGGCCUCAACAGAGGAUUGAGCAUCA
B5: chr9:35750248:35750349:+|CDS|ENSG00000107185|msi1|FALSE|unique (ssRNA)
RNA: GGGAGUUCUACAGUCCGACGAUCGGCCCUGGCCUGGGCCAGUGCCCAAAUCCACUGCCAGUUCCAUGCCAGUGAGAGUCGAGUAGCACUGCCUCCUCCUGACUCUAGUCAGCCAGAUGUCCAGCCCGACAGCCAGACUGUCUUCAACAGAGGAUUGAGCAUCA
B6: chr5:136977529:136977630:-|3pUTR|ENSG00000152377|msi1|FALSE|unique (ssRNA)
RNA: GGGAGUUCUACAGUCCGACGAUCACAAGCCAUCUCUUUCAUUUCUGCUUGAAGCCCCUUGGCUGCAGCAAUCCUGUCUGCCAUAGGUUUCUUCCUUCCUUACCUACUCAAGGGCUUUUUCUAAGGCAUGCACACAUAUCUCCUCAACAGAGGAUUGAGCAUCA
B7: chr1:109062613:109062715:-|3pUTR|ENSG00000197780|unk|total|mutant (ssRNA)
RNA: GGGAGUUCUACAGUCCGACGAUCAGUUCUGAAUACACAGGUUUUGUGUGUAUUUACUCUAUGUAUUAAAUUAUUAUUGCCCUCCGUUUAAAGUAAGGAUUACAAUUGGAUUUAAGCCGAUCACUGAAUGUUAUUGUUUAUGAACAACAGAGGAUUGAGCAUCA
B8: chr1:156668797:156668898:-|3pUTR|ENSG00000132688|msi1|total|mutant (ssRNA)
RNA: GGGAGUUCUACAGUCCGACGAUCUGACGGCACUCCCAUGUGCUGACUCCCCCCAUCCCUGCCACGCUGUGGCCCUGCCUGGCCCGUCCCUGCCUGAAUAAAGUAAUGCCUCCGCUUCAAAGUCUGGACUCUUCUUUCCCCCACCAACAGAGGAUUGAGCAUCA
B9: chr3:98585547:98585662:-|CDS|ENSG00000080819|unk|FALSE|unique (ssRNA)
RNA: GGGAGUUCUACAGUCCGACGAUCUCCAUUUGAUCCCUGGUUUGGCGCCGCUGUGUUUUCCAGGUGUGAUGAUUACUUCUUUAUAGCCCAUCGUGGAGAACGGCGGGGCAUUGGUGGUAUCUUUUUUGAUGAUCUUGACUCUCCCAACAGAGGAUUGAGCAUCA
B10: chr18:47840682:47840783:-|3pUTR|ENSG00000175387|unk|total|mutant (ssRNA)
RNA: GGGAGUUCUACAGUCCGACGAUCAUACCGUUUUUCCAAAGGUAUUUUACAAUAUUUCAACAGCAGACCUUCUGCUCUUCGAGCCGUUUGAUUUGGUUCCGUAACCAGAUUGCAUUAUGAAAUGGGCCUUUUGUAAAUGUAAUUCAACAGAGGAUUGAGCAUCA
B11: chr1:62864655:62864756:+|3pUTR|ENSG00000125703|unk|total|mutant (ssRNA)
RNA: GGGAGUUCUACAGUCCGACGAUCUUUGUUAACUGUGAUAUGCAUACACUUAUAUAAGCAGAAUUAUGAGUUAAAGUAAUACUCCGCAAUAUGAUUUUAUAAUGGCUCCUCAUUAUGCUUGCUGUUGAACCUUUUAUGAGGAGUCAACAGAGGAUUGAGCAUCA
B12: chr16:67657985:67658362:-|CDS|ENSG00000102977|control|control|control (ssRNA)
RNA: GGGAGUUCUACAGUCCGACGAUCUCCACACCAGGCUCUUGUGACCAGGCCCCAGAAACCUAGCCUGGAGUUCAAGGAGUUUGUAGGGUUGCCCUGCAAGAAUCGGCCGCCUUUUCCCAGGACCGGAGCUACCAGGGGAGCCCACAACAGAGGAUUGAGCAUCA
B13: chr9:123379744:123379845:-|3pUTR|ENSG00000119522|msi1|FALSE|unique (ssRNA)
RNA: GGGAGUUCUACAGUCCGACGAUCGUGUUUCAGCAUAGAUUCCAGUUUCGCACCCUGGGCAGACCCCCAGGCCCCAUCCGGGAUAGGGCAGAGGAGGUGCUGGCGGCCCCAGGGAAGGAGGGUGUGUACCCCAAGGCCCCCUGGCAACAGAGGAUUGAGCAUCA
B14: chr8:41263332:41263433:-|3pUTR|ENSG00000104332|msi1|FALSE|unique (ssRNA)
RNA: GGGAGUUCUACAGUCCGACGAUCCAGCAUGCCCGCCUAGUUACCUACCGGAGAGUUAUCCUGAUAAAUUAACCUCUCACAGUUAGUGAUCCUGUCCUUUUAACACCUUUUUUGUGGGGUUCUCUCUGACCUUUCAUCGUAAAGCAACAGAGGAUUGAGCAUCA
B15: chr1:21217244:21217432:-|3pUTR|ENSG00000117298|msi1|FALSE|unique (ssRNA)
RNA: GGGAGUUCUACAGUCCGACGAUCCCGCUCCAGAGCUUUAAGGAAAAUGAAGUGAGACCCCUCCCCUUAGGCCUGGGGAGCCAUAGGGCUGGCUUCUCUGUGGGUGCGUGGACGUGGGGUUGGGAGCUGGGAAUCUAUUUUUUGCAACAGAGGAUUGAGCAUCA
B16: chr11:13729208:13729309:+|3pUTR|ENSG00000197601|unk|total|mutant (ssRNA)
RNA: GGGAGUUCUACAGUCCGACGAUCAAAGUUGGCCGAUAUUUGAUUCUUCAUUUUUUGUUUUUUUCAUCCGUUGAAGUGGGUUUCCGUUUUGUUUAAAAUUAUAACCAGCGUAUUUUCACAUCAUUCUGUAAGUUAAAUGAUAUCCAACAGAGGAUUGAGCAUCA
B17: chr17:29262523:29262623:-|3pUTR|ENSG00000108256|msi1_unk|total|mutant (ssRNA)
RNA: GGGAGUUCUACAGUCCGACGAUCACUUUGACUGAUAUUGUAAUUUUCAAAUGUAUAAUAUGUUUACAGAUGUGCCCUGCAUUCCGUCUGCCUUGUUCCUAUUUUGAUUUUUGUUGAGUCUCCUGCCUGCUUGCCAAAAGCCCGCAACAGAGGAUUGAGCAUCA
B18: chr1:10947665:10948844:-|CDS|ENSG00000175262|control|control|control (ssRNA)
RNA: GGGAGUUCUACAGUCCGACGAUCCCCCAGGGAGGGGGCCAGGGGGCACAUGGACCUUUCAUCCUCAGAACCAAGCCAGGACAUAGAGGGGCCGGGACUCUCCAUCCUGCCAGCGAGGGAUGCCACAUUCUCCACCCCAAGUGUCAACAGAGGAUUGAGCAUCA
B19: chr2:128192036:128192329:+|3pUTR|ENSG00000136731|msi1|total|mutant (ssRNA)
RNA: GGGAGUUCUACAGUCCGACGAUCAUGUCCUGGUGUCACUCAUUGCCUCUUAUCUGUCGCCAUUCUAAUAUAAGUCAGCUUAACCGUUGACUCUGAAUAAUGCAAAACCCAGCUUGCUUCCAGAAUGGCCCCGGACCCUCCUCCCAACAGAGGAUUGAGCAUCA
B20: chr1:16057768:16058436:-|three_prime_utr|ENSG00000185519|control|control|control (ssRNA)
RNA: GGGAGUUCUACAGUCCGACGAUCGCAGCCCAGGCAUAUCUGGACCCCGGGGUCCAGGGCAGGGCAUCCCUUGACCCCUCGGGUAGGCACAGGGUAGGUGCGGCAGGGAUGGGGCCAGUGCUCAUGGUGGCCUCUCUGUGCCUCCAACAGAGGAUUGAGCAUCA
B21: chr3:94057921:94060947:-|three_prime_utr|ENSG00000178700|control|control|control (ssRNA)
RNA: GGGAGUUCUACAGUCCGACGAUCAGGUGUUUUCUGGUUUAAGUUGUUCCCCCUCCCUCUGAGAAAAGUAUGCAUUUUUACAUUAGAAAAGGGACUUUUGUUGACUUCAGAUCUAUGGAUAAUUAUUUCUAAGCAACGUGUUUUCAACAGAGGAUUGAGCAUCA
B22: ENSG00000198589:be:win_8801|3pUTR|ENSG00000198589|bound_else_gene|NA|bound_elsewhere_windowed (ssRNA)
RNA: GGGAGUUCUACAGUCCGACGAUCAAGUCUAUUUUCACCAAUUAUGGAAACAUACAGUGGAGCAAGUAAACCACUUAUUCCAGCUAUAAUAUUAUGAAGAACAUUUCCCAUGCAUCUACAAGCUUGAGAAAUAGGAUUUUCACACAACAGAGGAUUGAGCAUCA

This is one part of the list.

In the test the target is MSI1 full-length (mouse, UniProt Q61474 1-362). Briefly: nsRBNS (natural sequence RNA bind-n-seq); RBNS binding buffer (assumed for nsRBNS): 25 mM Tris pH 7.5, 150 mM KCl, 3 mM MgCl2, 0.01% Triton X-100, 500 ug/ml BSA, 20 U/ml SUPERase-In, 4 C; UNK is unkempt and MSI1 is Musashi-1; names of the RNAs are library labels; protein concentration not given here; high values mean tight binding.
Sequence of UniProt Q61474 (Q61474 whole entry): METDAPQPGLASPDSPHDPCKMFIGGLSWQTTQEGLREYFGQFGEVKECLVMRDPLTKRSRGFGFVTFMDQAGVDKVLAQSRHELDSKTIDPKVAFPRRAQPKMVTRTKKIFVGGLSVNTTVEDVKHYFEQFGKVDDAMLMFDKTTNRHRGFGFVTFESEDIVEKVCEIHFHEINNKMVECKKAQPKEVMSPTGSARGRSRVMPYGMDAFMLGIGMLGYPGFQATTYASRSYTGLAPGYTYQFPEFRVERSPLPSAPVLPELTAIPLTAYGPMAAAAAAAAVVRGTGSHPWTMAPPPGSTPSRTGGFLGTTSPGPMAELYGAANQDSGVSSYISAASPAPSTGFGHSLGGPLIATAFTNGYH
On to B1, for which the binding signal worked out at 1.95 enrichment R.

B2 returned a binding signal of 0.348 enrichment R.

In turn, B3 displayed a binding signal of 1.78 enrichment R.

With B4, the binding signal was found to be 5.54 enrichment R.

For the molecule B5, the binding signal was found to be 0.366 enrichment R.

Molecule B6 showed a binding signal of 0.506 enrichment R.

Molecule B7 yielded a binding signal of 1.35 enrichment R.

As to B8, the binding signal is 1.06 enrichment R.

For B9, the binding signal was determined as 0.392 enrichment R.

In the case of B10, the binding signal came to 0.34 enrichment R.

Molecule B11 yielded a binding signal of 0.572 enrichment R.

B12 came in with a binding signal of 0.41 enrichment R.

Consider B13, for which the binding signal was determined as 0.381 enrichment R.

For the molecule B14, the binding signal stood at 1.17 enrichment R.

Consider B15, for which the binding signal came to 0.48 enrichment R.

Consider B16, for which the binding signal was determined as 0.59 enrichment R.

On to B17, for which the binding signal is 0.444 enrichment R.

B18 returned a binding signal of 0.58 enrichment R.

Regarding B19, the binding signal came out at 0.445 enrichment R.

For B20, the binding signal worked out at 0.357 enrichment R.

Regarding B21, the binding signal was 0.983 enrichment R.

Regarding B22, the binding signal was 0.447 enrichment R.
